± gives the standard deviation of the averaged measurements. In all, about 4,000 sequences were measured (“arbitrary fluorescence units”: median about 830, highest 2% from about 6,500 on). The list lacks most of the strong results.

Results on 62 sequences are retold here after the supplement of paper PMC10681739.
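Note: Full-length recombinant human RUNX1 bound to double-stranded DNA microarray spots, detected with an Alexa488-labelled secondary antibody after the anti-RUNX1 primary, read as scanned spot fluorescence.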

Sequence of UniProt Q01196 (Q01196 whole entry): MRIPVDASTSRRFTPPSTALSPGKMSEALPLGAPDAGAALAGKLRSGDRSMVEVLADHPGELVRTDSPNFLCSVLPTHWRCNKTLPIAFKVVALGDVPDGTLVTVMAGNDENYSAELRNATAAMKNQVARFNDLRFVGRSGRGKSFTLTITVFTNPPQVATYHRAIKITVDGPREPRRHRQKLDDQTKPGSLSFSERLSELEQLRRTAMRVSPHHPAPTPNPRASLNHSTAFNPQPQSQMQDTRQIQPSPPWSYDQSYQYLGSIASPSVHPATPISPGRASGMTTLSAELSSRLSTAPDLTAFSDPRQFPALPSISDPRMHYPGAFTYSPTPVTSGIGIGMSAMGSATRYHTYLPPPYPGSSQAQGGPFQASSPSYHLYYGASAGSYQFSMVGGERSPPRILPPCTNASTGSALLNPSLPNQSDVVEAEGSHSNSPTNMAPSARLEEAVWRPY

The assay has as its target RUNX1 (UniProt Q01196). Briefly: RUNX1 binding intensity (PBM fluorescence), RUNX1 alone (arbitrary fluorescence units); higher = stronger binding. As to conditions: RUNX1 concentration 2 nM; ETS1 concentration 0 nM. As for the experimental part:
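gcPBM on 36-bp genomic-derived probes (partner site mutated) containing one RUNX1 site and no ETS1 site. Recombinant human RUNX1 (2 nM) was incubated alone or with ETS1 (25 nM) and detected by anti-RUNX1 antibody fluorescence. Values are medians over 4 replicate spots (not normalised). The probes sit in constant array flanks that are not printed.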
Consider ACCGGAGTGTGGTGGTAAACCTTTTCCAGCCTTCCA, for which the RUNX1 binding intensity was found to be 791. AAAACAAGGACTTTCGCCTCCCTGCGGTCCCTCCCC: the RUNX1 binding intensity came to 930.

In turn, CAGGGAGCGGGCTGAACCTTTCTACCGCGTCTCTAG displayed an RUNX1 binding intensity of 734. GGAACAGAAAGCGGCAGAAATAGCAGCCACCGCGGC showed an RUNX1 binding intensity of 760.

For the sequence CCTGCTGCTTCGGCCCGGAGTTGTTGTGGGCTCCAG, the RUNX1 binding intensity came out at 763. CTAGCCTGTGGTTTTTCTGAGAATGCAGGCTATGTA had an RUNX1 binding intensity of 2680.

GATATGGCAGGCAGTAGGGCCTGGAAACCGCACGGC: the RUNX1 binding intensity was found to be 944 ± 26. ATGCCTGTGGTCCCAGCTACACATGAAGCTGAGGTG: the RUNX1 binding intensity was found to be 763. The sequence TTACTTCTCATGAAGCGCTGTGGGGCTGGGGTTGCT showed an RUNX1 binding intensity of 757.

CAGACACGATGACAGCTGGCTGGCCCGCAGCACCTC came in with an RUNX1 binding intensity of 796. Regarding GACAACCTACCACAGCCTTCCTTTCGGGCGCTCAGG, the RUNX1 binding intensity turned out to be 1040.

With GCTGAGTGCGGGTGGCCTGGGCCGAAGGCTCAGCGG, the RUNX1 binding intensity was found to be 724. In turn, GCTCCGCTTACGGGAGGCGGGGCTTCTGCGGGTTCC yielded an RUNX1 binding intensity of 698. With GCACACCACAAAGCCCTATTAAGACATGAAGCCAGA the figure was 1130; with CCTGTGGTTGCAAAGATGCTCTAACAGCAAGTGGGT, 816. GAAGCGATATGTCCTCCTGGGGTTGACCGCCCCGTG registered an RUNX1 binding intensity of 796. Sequence ACAGTGTGGTTGTGTTTTCTGTGCATCACCTCCCTG came in with an RUNX1 binding intensity of 884. In the case of GTGGCGAAAGTGCAGATGCGAAACCGCTGGCTCGGC, the RUNX1 binding intensity stood at 751. On to GGTTGGTTTGACCACGCCAGTTCGGCCTTCGCCTGC, for which the RUNX1 binding intensity worked out at 795. CTTTGCTGCAGCATGTTCTAACCACAAGCCCAGGAG showed an RUNX1 binding intensity of 2100. The sequence CTGCTTACGGCCCCGGGGTTCGCTACCCCACAATCC registered an RUNX1 binding intensity of 926. With GCCACCGTATTTGCGCGTTTTTCGCGGTAGGCGGGA, the RUNX1 binding intensity worked out at 781. Take GAATCTGATGCAACCGCCGCCCCGGGAGTCGCGCCC: the RUNX1 binding intensity was 731. As to CGGGTTGGGCAGGGAGCAGCATGACCGCAGTGGGTC, the RUNX1 binding intensity is 916.

GGACTGCCTGAAGCCAGATCGGTTTACCACAGTCAG yielded an RUNX1 binding intensity of 777. With GATACTCTTTCTGTCATCCCATCCCCACAGCCTTAG the figure was 1470; with CTGCCGCTTGCTGGGCTGAGTCCGCCCGCGGTCCCG, 696. With CAGGGATTCAGGCTGAGTGCGGCCCCCGCAGCCTCC the figure was 795; with CCCAGATCCCGTGAGTCACCAGGTCCCACAAACCCT, 921; with CGCCTTGCGCCATCTTCTTCCACTAGCGGTAGGGGA, 848. On to CACCCTTCAGGCGGTGGCGGGCCTCGGTAACCGCCC, for which the RUNX1 binding intensity was found to be 834. As for CCCGCCACCACAGAAGAGCCAATCGGCAGCTCTGGG, the RUNX1 binding intensity was determined as 911.

The sequence AGCCACGGACTTTCGCCTACAGGTCGCCGCAGGTCC displayed an RUNX1 binding intensity of 743 ± 40. The sequence AGCGCCTTACCCGCGGCACACCCATTTGCTGACCCC displayed an RUNX1 binding intensity of 1120. As to CCACCACGAGTGGTTTCTGACCTCTTCATGCCACTG, the RUNX1 binding intensity worked out at 1040.

Turning to TCCAGCGGTAATAATCACACACACCTCCTCTTAATC, the RUNX1 binding intensity came to 1070.

Regarding GCCGGCGGCCGAAAGTCTATCCCGCAGAAGCGCAGC, the RUNX1 binding intensity stood at 804. As to CCCAGGCTCCCGGGTTGAATATGTGGGCTGAGGCGA, the RUNX1 binding intensity is 734. Regarding ACAATAACAGGCAGTGGTGGGGACTGCGGTGACCTG, the RUNX1 binding intensity worked out at 814.

For the sequence GGCCGGGGACCGAAGGCGGGCCCGCAGCAGATCCTG, the RUNX1 binding intensity is 700. In turn, CCGCCACGGCCGCAGCCATCTCCACCGTAAGAATGG showed an RUNX1 binding intensity of 906. In turn, CAGTTTGCGGCACTGTTGTCATTCCCGGGGTAAGAT registered an RUNX1 binding intensity of 775. CCTGACCTCTGTGGGAACACACAGGCAGTGGTTCAT had an RUNX1 binding intensity of 858.

GAACCTTGGCGCGGTGACGCTAGTTTTCGGCGGGCT: the RUNX1 binding intensity worked out at 709. The sequence CCCGGCAGCTGATAGCGCCTGCGGGTCGCAGCAAAT displayed an RUNX1 binding intensity of 705. As for TCTCCCTGAACTGCTCCTTCACCATGATGACCGCTG, the RUNX1 binding intensity was found to be 969.

For GAAGTGGGTTAAGGAGCTGCACTGCTCCCTGCCCCC, the RUNX1 binding intensity was found to be 820. Sequence GGACGCATGAAGGGGTGGAGTCACCACAGGAGGTAG had an RUNX1 binding intensity of 788. Sequence AACCCGGGAGTGGACACGGAGCTCGGCTGCGGCTCC showed an RUNX1 binding intensity of 666. The sequence GCCGTCACCTCCGTCATTCAAACCGCCCGCCAATGG registered an RUNX1 binding intensity of 1290. Turning to GAGGCCCAGGGTGTGGCTGGAGGCCTGTGGTGGGAC, the RUNX1 binding intensity came out at 720. As for AACGTCCTCATTTCTCCAACTGTCCAGCCACAGAAA, the RUNX1 binding intensity is 1580.

Turning to CTGAAGAGGACATGTATTCCTCATGTTGTGGTTGGC, the RUNX1 binding intensity is 732.

For the sequence AGCTTGCGCTGGAAGTCTGCGGCAGGAGGGCGTCCT, the RUNX1 binding intensity turned out to be 714.

As for TCTCAAACGAAGGGAAAGCTTGGCCCGCAGCACCCA, the RUNX1 binding intensity stood at 735. Regarding TCCCAGGAACCACAGTGGGACAGCAAGTGACAGCCA, the RUNX1 binding intensity turned out to be 836. As for GCCAACAGTGGTTTCGCCCCGCTCCCTGCGCCCCGC, the RUNX1 binding intensity was found to be 941.

TGACATGGCTTCGGCCTTGGGCTTTGTGGTCTCCCA gave an RUNX1 binding intensity of 835.

Sequence AGGCCCGAATACCCGCCCCCAAAACCGCGTCCACAA registered an RUNX1 binding intensity of 1060. AAGTGAGGCGGTTACCTCGGCGCCTTTTCCAGCAGC gave an RUNX1 binding intensity of 711.

Consider GACCGGACTCCCGGCTGGTCTGTGGGGTTTCGGGTT, for which the RUNX1 binding intensity turned out to be 1350. With CTGTTGTGGTTGCTGCGACAATGCTCCAGCAAGGGT the figure was 1580.
